From article PMC4859805, “Molecular mechanism of activation-triggered subunit exchange in Ca^2+/calmodulin-dependent protein kinase II” (eLife, 2016)

Key:
[1] = target: the molecule itself; assay: SEC; analytical gel filtration, Superose 6 10/300; elevated injection concentration of 3–5 μM; reinjection of the dodecamer/tetradecamer peak of the holoenzyme; pre-incubation with Mg2+-ATP for the holoenzyme
[2] = target: the molecule itself; assay: negative-stain electron microscopy; 15 μg/mL CaMKII-α in 20 mM Tris pH 8.0, 150 mM KCl, 5% glycerol; uranyl acetate; 2D class averages, no symmetry imposed

Protein	stoichiometry N [1]	stoichiometry N [2]
human CaMKII-α holoenzyme F397A (enzyme, Ca2+/calmodulin-dependent protein kinase II alpha, human, full length; residue number according to PDB 1HKX; also called F397A holoenzyme; mutant holoenzyme; source: E. coli Tuner (DE-3) pLysS with λ phosphatase, purified; not shown: SUMO, N-terminal, cleaved) not shown	2	
human CaMKII-α holoenzyme, full length, unactivated (enzyme, Ca2+/calmodulin-dependent protein kinase II alpha, human, full length; also called full-length CaMKII-α; source: E. coli Tuner (DE-3) pLysS with λ phosphatase, purified (Ni-NTA, Q-FF, Superose 6); not shown: SUMO, N-terminal, cleaved; copies: 12 or 14) not shown		12 and 14

“And” between values parts separate entries of the source, which are not always exact repeats. Equal values may be shown once.
